# Assay results as given in the RNAGym collection of RNA variant scans (doi:10.7554/elife.90254).
# The source gives no read counts; variants with many changes may rest on few reads.
# B1: OR4K15 (parent)
# chain: GUUAACGGUCAUAGGCCAUGGAAACUAGGAGCACCAUUUCGCUGCCAGUGAAGAAAUGAACAAAGAAAAUCUGGGCCAGGCAGGCAUCAAAAGAAAUAGUCUUGCGCUCAACCAGAAAGUCUGUAAUCAUUUUAAGGGUA
# Variants of: B1
# Assay: self-cleavage, relative activity (ratio to wild type); higher = more cleavage; in vitro, sequencing; the parent is a self-cleaving ribozyme
row,Variant,self-cleavage
1,U57A A67G A82U,0.26
2,U57C C61U A66G A92G,0.18
3,A60G A68G A118G A129U,0.42
4,A56G A69G U103C A117G,0.56
5,U57C A67G U100C U103C U108C A114U C128A,0.01
6,A60G A63U A64G A68C A69G A78U,0.35
7,U57C A78G A91G,0.17
8,A56G U102A U131A,1.23
9,A59G A78U U87C U102C U108C,0.01
10,A60G A78U A89G U108C,0.01
11,A59G A62G A68G A78G A90G,0.26
12,U57C U100C U103C,2.2
13,A59U A91G A110G,0.09
14,A59G A64G A110G,0.2
15,A60G A90U A91G,1.95
16,A60G A68G U122C,0.98
17,A56G A60G A111G,0.03
18,A56G U108C A135U,0.02
19,A60U A63G U130A,0.65
20,A60G A98G U130C,0.22
21,A60C U102A U133A,1.16

row,Variant,self-cleavage
1,A59G A67G A89U U108C,0.02
2,G58A A59C A60G,0.86
3,U57C U70C A117G U130C,0.71
4,A59G U70C G74A,0.24
5,U57G A91G C109A,0.23
6,A56G A68G U72A A110G,0.09
7,A60U A63G A66C A89U,2.79
8,A56G U57C A111G A129G U131C,0.01
9,A56G A96C A111G U139C,0.01
10,G58A C85U U102A U130C,0.34
11,A59G A62G U124G,0.98
12,A56G A98G U132A,0.31
13,G58A A78G A117U,0.08
14,A59G A63U C101U,0.43
15,A60U A69G A94G,1.31
16,U57C A90G U130C,1.02
17,U57C U87C A92U,2.04
18,A59U U72C C88U,0.4
19,A56G A63U A111G,0.03
20,A59G G106C C109A,0
21,U57A A69G A118G,0.52

row,Variant,self-cleavage
1,A59U A62G U87G,0.55
2,A59G A114G U122A,0.22
3,U57A U70C A96U A117G,1.08
4,A56G A86G A92G,1.03
5,A56G A60G U108A,0.22
6,A59G G74A U87C,0.4
7,A60G A92U A98G,0.81
8,A56G A59U A62U,1.37
9,A56U A98G C105U A134G,0.03
10,A59G A64G A92G,1.33
11,A56G A60G U87C,0.4
12,A56G A89G U108C,0.04
13,A60G U87C A89U,1.36
14,A60U A92G A126G,1.31
15,A56U A118G A126G,0.91
16,A60G A62G U70C,0.12
17,U57C A116G A118U A129U G138A,0.09
18,A60G C88A A89G U127C,0.95
19,A56G A59G U103C A117G,0.67
20,A59G A60G A78G,0.34
21,A60G A78G U108C A126G,0.01

row,Variant,self-cleavage
1,A60G A111G A129G,0.02
2,A56G U57C A64U A126C,0.51
3,A60G A86G G115A,0.07
4,U57C A78G U100C,0.38
5,A59U A66C A95G C128U,0.93
6,A59G A82U A116U,0.05
7,A59G U72A G93U A96G,0.36
8,A59G A66G A110U,0.99
9,U57A A82G U108C C128U,0.02
10,A60G A86G A90G,0.81
11,A56G U70C U108C A111G,0
12,A59G U100C A110G,0.26
13,U57C U120C A140C,0.75
14,A60G A78G C109A,0.13
15,A56G A60G A116G A134G,0.14
16,A56G C105A U124C A125G G138A,0
17,A56G U57C A78U,0.24
18,U57C A66G A94U,1.28
19,A60G A78G U127C,0.02
20,G58U U87C A94U C112U,0.02
21,A56G A69G G74U A90G U130C,0.11
